{
  "source": "PubChem BioAssay AID686979",
  "about": "(National Center for Advancing Translational Sciences (NCATS), 2013)",
  "note": "The whole screen tested about 420,000 compounds, of which about 50,000 (12%) were called active. The shares of active, inactive and inconclusive entries below differ from those in the screen. Calls follow the shape of the dose curve; as a rule, active = well fitted inhibition curve with a large enough effect; inconclusive = small, poorly fitted or top-dose-only effect; inactive = flat fitted curve, though single readings scatter. No potency is given beside an inconclusive call; the fits are too rough. % is scaled to controls: 0 for no effect and ±100 for the full control effect; potency is read from the fitted curve at half-maximal effect; tags tell the direction and shape of the fitted curve.",
  "data": [
    {"experiment": "qHTS for Inhibitors of human tyrosyl-DNA phosphodiesterase 1 (TDP1): qHTS in cells in presence of CPT; also: nearly all actives have a fitted effect of over 55% in size", "conditions": "chicken DT40 Tdp1-/-;hTDP1 cells + 20 nM CPT, ATP luminescence, 48 h; activity change, negative = growth inhibition: at 46.2 µM (top of the series) unless noted", "procedure,_shortened": "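Cell growth measured by CellTiter-Glo luminescence after a minimum 48 h, 37 C compound exposure with 20 nM CPT in Tdp1-knockout DT40 cells stably expressing hTDP1, seeded 400/well; qHTS titration format.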", "values": [
      {"molecule": "Cc1cc(NC(=O)c2n[nH]c(=O)c3ccccc23)ccc1Br", "Potency": "inconclusive [inhibitor, single point]"},
      {"molecule": "Cc1ccc(C(=O)NC(C)CCc2ccccc2)cc1S(=O)(=O)N1CCOCC1", "note": "(stereo not given)", "Potency": "inconclusive [inhibitor, single point]"},
      {"molecule": "CC(=O)Oc1cc2c(C(=O)NCCN3CCOCC3)c(C)oc2c2ccccc12", "Potency": "active: 18.4 µM"},
      {"molecule": "Cc1ccc(Nc2nc(-c3sc(NC(=O)c4ccco4)nc3C)cs2)cc1", "Potency": "inconclusive [inhibitor, single point]"},
      {"molecule": "CCCc1nn2c(=O)cc(COC(=O)c3cccc(NC(=O)COc4ccccc4C)c3)nc2s1", "Potency": "inconclusive [inhibitor, single point]"},
      {"molecule": "O=C(COC(=O)CCN=C1NS(=O)(=O)c2ccccc21)NNC(=O)c1ccccc1", "activity change, negative = growth inhibition": "inactive: 11.2%"},
      {"molecule": "Cc1sc2nc(CN(Cc3ccccc3)C(=O)NC3CCCCC3)[nH]c(=O)c2c1C", "Potency": "active: 20.6 µM"},
      {"molecule": "O=C(NCCc1ccccc1)c1cnc2sc(N3CCCC3)nn2c1=O", "Potency": "active: 16.4 µM"},
      {"molecule": "CCN1CCN(CCCNC(=O)c2cc3c(=O)n(C)c4ccccc4c3s2)CC1", "Potency": "inconclusive [inhibitor, single point]"},
      {"molecule": "CCOC(=O)c1cnc2ccc(C)cc2c1Sc1ccc(F)cc1", "Potency": "inconclusive [inhibitor, single point]"},
      {"molecule": "CCc1cc(-c2cnnn2CCc2c[nH]c3ccccc23)ccc1-c1cn(CC(C)C)nn1", "Potency": "inconclusive [inhibitor, single point]"},
      {"molecule": "COc1ccc(C2=C(C=Nc3c(C)n(C)n(-c4ccccc4)c3=O)C(c3ccccc3C)c3ccccc3O2)cc1OC", "note": "(stereo not given)", "activity change, negative = growth inhibition": "inactive: -27.3%"},
      {"molecule": "CC1C(c2ccccc2)N(C)C(c2ccccc2)CC1(O)c1ccc(F)cc1", "note": "(stereo not given)", "Potency": "inconclusive [inhibitor, single point]"},
      {"molecule": "CCN(c1ccc2c(c1)OCO2)S(=O)(=O)c1cc(Br)cc2c1N(C(=O)C1CC1)CC2", "Potency": "inconclusive [inhibitor, single point]"},
      {"molecule": "C[C@@H]1CC2=C(C(=O)OC(C)(C)O2)[C@@H](C2CC2)O1", "activity change, negative = growth inhibition": "inactive: 2.46%"},
      {"molecule": "CC1CCN(C(=O)C(Cc2ccccc2)n2cccc2)CC1", "note": "(stereo not given)", "Potency": "inconclusive [inhibitor, single point]"},
      {"molecule": "Cc1cccc(CCNC(=O)C2CCN(S(=O)(=O)c3cccc4cccnc34)CC2)c1", "activity change, negative = growth inhibition": "inactive: -29.9%"},
      {"molecule": "COc1cc(N(C)C)c(OC)cc1/C=C/c1ccnc2ccccc12", "Potency": "active: 10 µM"},
      {"molecule": "Cc1nonc1OCCNCCNc1ccc([N+](=O)[O-])cc1Cl", "activity change, negative = growth inhibition": "inactive: -20%"},
      {"molecule": "NCCCC[C@H]1CN=C(N)N1CCC12CC3CC(CC(C3)C1)C2", "Potency": "inconclusive [inhibitor, single point]"},
      {"molecule": "CCCCOc1ccc(C(=O)N2CCN(CCc3ccncc3)CC2)cc1", "Potency": "inconclusive [inhibitor, single point]"},
      {"molecule": "COc1ccc(N(C(=O)c2cccnc2)S(=O)(=O)c2ccc3c4c(cccc24)C(=O)N3C)cc1", "Potency": "inconclusive [inhibitor, single point]"},
      {"molecule": "Cc1ncc(CO)c(/C=N/NC(=S)Nc2ccc(C(C)C)cc2)c1O", "Potency": "active: 14.6 µM"},
      {"molecule": "COCc1cccc(-c2csc(C(O)c3cccc(OC)c3)n2)c1", "note": "(stereo not given)", "Potency": "active: 18.4 µM"},
      {"molecule": "CCCCn1c(=O)[nH]c(=O)c2c1nc(-c1ccc(OCCC)c(OCC)c1)n2CCOC", "activity change, negative = growth inhibition": "inactive: 4.28%"},
      {"molecule": "Cc1cccc(C)c1NC(=O)C1(C)CCC(=O)N1C1CCN(Cc2ccccc2)CC1", "note": "(stereo not given)", "activity change, negative = growth inhibition": "inactive: 3.51%"},
      {"molecule": "O=C(Nc1ccc(-c2n[nH]c(=S)o2)cc1)c1ccccc1Cl", "activity change, negative = growth inhibition": "inactive: -3.94%"},
      {"molecule": "CCCCCCCCC(=O)NCc1cc(OC)c(O)cc1I", "Potency": "inconclusive [inhibitor, partial curve, poor fit]"},
      {"molecule": "Cc1ccc(/C=N/NC(=O)c2cccs2)o1", "activity change, negative = growth inhibition": "inactive: -9.73%"},
      {"molecule": "COCCCNC(=O)c1oc2c(c1C)-c1nn(Cc3cccc(Cl)c3)cc1CC2", "Potency": "active: 20.6 µM"},
      {"molecule": "CCOc1ccc(NC(=S)N2CCC(c3ccc(C)cc3)C2)cc1", "note": "(stereo not given)", "Potency": "inconclusive [inhibitor, single point]"},
      {"molecule": "COCCC(=O)N1CCC(Oc2ccc(C(=O)NCc3nccn3C)cc2)CC1", "activity change, negative = growth inhibition": "inactive: -4.45%"},
      {"molecule": "O=C(CCn1nc(-c2ccc(Cl)cc2)c2ccccc2c1=O)Nc1cccnc1", "Potency": "inconclusive [inhibitor, single point]"},
      {"molecule": "CCCCc1c(-c2ccccc2F)ncn1CCc1ccccc1OC", "Potency": "active: 25.9 µM"},
      {"molecule": "CC1(C)Oc2ccc3ccc(=O)oc3c2/C(=C/Nc2ccccc2)C1=O", "Potency": "inconclusive [inhibitor, single point]"},
      {"molecule": "CC1Cc2cc(S(=O)(=O)N3CCN(c4ccccc4F)CC3)ccc2N1C(=O)C1CCC1", "note": "(stereo not given)", "Potency": "inconclusive [inhibitor, partial curve]"},
      {"molecule": "COc1ccc([C@H]2[C@H]3C=CC[C@@H](C)[C@@H]3C(=O)N2Cc2ccccc2)cc1Cl", "Potency": "inconclusive [inhibitor, single point]"},
      {"molecule": "Cc1cc(F)ccc1S(=O)(=O)NCC(c1ccco1)S(=O)(=O)c1cccs1", "note": "(stereo not given)", "Potency": "inconclusive [inhibitor, full curve, poor fit]"},
      {"molecule": "CCC(CC)c1nc(C#N)c(NCc2ccccc2)o1", "Potency": "active: 23.1 µM"},
      {"molecule": "CCOC(=O)C1CCCN(/C=C2\\SC(=S)N(CC)C2=O)C1", "note": "(stereo not given)", "activity change, negative = growth inhibition": "inactive: -25%"},
      {"molecule": "Cc1cc(C)c(S(=O)(=O)N/N=C/c2ccc3c(c2)OCO3)c(C)c1", "Potency": "inconclusive [inhibitor, single point]"},
      {"molecule": "O=C(Nc1ccccc1)C(Cc1ccccc1)c1ccccc1", "note": "(stereo not given)", "Potency": "inconclusive [inhibitor, single point]"},
      {"molecule": "CCOC(=O)c1ccc(Nc2c(-c3ccc(O)c(OC)c3)nc3nc[nH]n23)cc1", "Potency": "active: 11.6 µM"},
      {"molecule": "Cc1ccccc1Nc1nc(N)nc(CSCc2c(C)noc2C)n1", "Potency": "inconclusive [inhibitor, single point]"},
      {"molecule": "CCOC(=O)C(C#N)=CN1CCN(C(=O)CCCl)c2ccccc21", "Potency": "inconclusive [inhibitor, single point]"},
      {"molecule": "CCCC1NC(=O)c2cccnc2-n2c1nc1ccccc1c2=O", "note": "(stereo not given)", "activity change, negative = growth inhibition": "inconclusive: 13.1% [inhibitor]"},
      {"molecule": "O=S(=O)(Nc1ncnc2scc(-c3ccc(F)cc3)c12)c1cc(F)ccc1F", "Potency": "inconclusive [inhibitor, partial curve]"},
      {"molecule": "COc1ccc(OC)c(/C=N/c2oc(-c3ccco3)c(-c3ccco3)c2C#N)c1", "Potency": "inconclusive [inhibitor, single point]"},
      {"molecule": "O=C(NCc1cccc(OC(F)(F)F)c1)C1CCC(=O)N(Cc2cccc(F)c2)C1", "note": "(stereo not given)", "activity change, negative = growth inhibition": "inactive: -14.8%"},
      {"molecule": "NS(=O)(=O)c1ccc(CCNC(=O)CNC(=O)C2CCCCC2)cc1", "Potency": "inconclusive [inhibitor, partial curve]"},
      {"molecule": "COC(=O)c1cc2nc(-c3ccc(C)cc3)cc(C(F)(F)F)n2n1", "activity change, negative = growth inhibition": "inactive: -1.48%"},
      {"molecule": "Cc1ccnc(SCc2ccc(C(=O)O)cc2)n1", "Potency": "inconclusive [inhibitor, single point]"},
      {"molecule": "CCOC(=O)C1CCCN(C(=O)COc2ccc(N(C)S(=O)(=O)c3ccc(C)cc3)cc2)C1", "note": "(stereo not given)", "Potency": "inconclusive [inhibitor, single point]"},
      {"molecule": "C/C(CC(=O)Nc1ccccn1)=N\\NC(=O)c1ccc2ccccc2c1", "activity change, negative = growth inhibition": "inactive: 7.85%"},
      {"molecule": "O=S1(=O)NC(C2CC2c2ccccc2)CCO1", "note": "(stereo not given)", "Potency": "inconclusive [inhibitor, single point]"},
      {"molecule": "CCOC(=O)C1=CN(Cc2cccc(-c3cccnc3)c2)S(=O)(=O)N(C)C1C", "note": "(stereo not given)", "Potency": "inconclusive [inhibitor, single point]"},
      {"molecule": "O=S1(=O)C[C@H](N2CCN(CC3CC3)CC2)[C@@H](COCc2ccccc2)N1", "Potency": "inconclusive [inhibitor, single point]"},
      {"molecule": "O=C(O)c1ccc(NC(=S)Nc2ccccc2)cc1", "Potency": "inconclusive [inhibitor, single point]"},
      {"molecule": "Cc1ccc(-n2nc(C(=O)NN)c(C)c(C#N)c2=O)cc1Cl", "Potency": "inconclusive [inhibitor, full curve, poor fit]"},
      {"molecule": "O=C(CNC(=O)c1ccc(F)cc1)N/N=C/c1cc(Br)ccc1OCc1ccccc1", "Potency": "inconclusive [inhibitor, single point]"},
      {"molecule": "CC1=C(C(=O)N(C)C)CC(CC(=O)NCCN2CCOCC2)C(=O)N1CCCN1CCCC1=O", "note": "(stereo not given)", "Potency": "inconclusive [inhibitor, full curve, poor fit]"},
      {"molecule": "O=C(CNCc1ccccc1)Nc1ccc(Oc2ccccc2)cc1", "activity change, negative = growth inhibition": "inactive: 13.9%"},
      {"molecule": "Cc1ccc(NC(=O)CSCC(=O)Nc2cc(C(F)(F)F)ccc2N2CCOCC2)cc1", "Potency": "active: 18.4 µM"},
      {"molecule": "Cc1ccc(S(=O)(=O)N(CC(=O)NCCSc2ccccn2)c2ccc(C)c(C)c2)cc1", "Potency": "inconclusive [inhibitor, single point]"},
      {"molecule": "Cc1c(Cl)cccc1N1C(=O)CC(Sc2ccccc2N)C1=O", "note": "(stereo not given)", "Potency": "inconclusive [inhibitor, single point]"},
      {"molecule": "OCC1(CCc2ccccc2)CCN(Cc2cnc(N3CCCC3)s2)CC1", "Potency": "inconclusive [inhibitor, single point]"},
      {"molecule": "CCc1nc2ccc(C(=O)NCCc3c[nH]c4ccccc34)cn2c1N(C)Cc1ccc(N(C)C)cc1", "Potency": "inconclusive [inhibitor, single point]"},
      {"molecule": "CCOC(=O)c1c(C)n(C)c2ccc(O)c(CN(C)C)c12", "Potency": "active: 20.6 µM"},
      {"molecule": "CC(C)C(=O)N1CCN(c2ccccc2NC(=O)c2ccc(Br)o2)CC1", "Potency": "inconclusive [inhibitor, single point]"},
      {"molecule": "NS(=O)(=O)c1ccc(NC(=O)COC(=O)c2cn(-c3ccccc3)nc2-c2ccc(F)cc2)cc1", "Potency": "inconclusive [inhibitor, single point]"}
    ]}
  ]
}
